Data from the supplement of paper PMC11417369.
The list shows a part of the results.

System: PfAP2-HC AP2 domain (GST-tagged)
Test: gcPBM binding intensity (ln(normalized median fluorescence intensity)); higher = stronger DNA binding
How it was run: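 In this array assay, P. falciparum DNA-binding domains with a GST tag, expressed in E. coli, were applied for 1 h to primer-extended double-stranded 36-bp intergenic genomic probes and negative controls on an Agilent 4 × 180k array. Bound protein was visualised with Alexa488 anti-GST antibody at 488 nm. Binding intensity is the highest Masliner-normalised natural-log median intensity across replicate spots of either probe orientation.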

Sequence | gcPBM binding intensity (ln)
TACAAACTATGATGCACACATATATATCTGTATCCA [CACACA_site4809] | 9.84
ATTATGTTATATACACGTACGTGTGCTTTATAATTA [XGTACX_site2728] | 10
ATAAAGTAGATATTTTGTACGCAGGTTGTATATATT [XGTACX_site1464] | 9.72
TACTTTACTAATATATATAGGAGAGTATACATGAAA [CACACA_negctrl_site63] | 9.55
GGAATTATAATAAATGGTACACATAAAAAAAAAAAA [XGTACX_site8343] | 9.73
CATATATAAATATGTATGCACTTTAACAAAATGTAT | 9.54
ATTCCACCTTAAAACTGTACTTTCTCAATCTTTTAT [XGTACX_site796] | 9.72
ATATTTATTTATATGTGTACTTATGTTTATATAAAA [XGTACX_site4250] | 9.51
ATATATACTTATATTTGTACACAAAGGTATCTCTAG [XGTACX_site3805] | 9.64
GGAATAATAAAATTATGTACATAAGAATCATATACT [XGTACX_site6810] | 9.84
AAATAATACCAAATGTGTACTTATTTCACTAATAGA [XGTACX_site7571] | 9.71
AATAATATATAATAATGTACAAAAAAAAAAAAAAAA [XGTACX_site4158] | 9.3
AAGCTTTGGTGTTATGCATGCAATTAAACTATTAGT [TGCATGCA_site277] | 9.53
TTTTATTTTTTAGTAGTACACACTTTTTGTACCTTT [CACACA_site599] | 9.85
AAAAAAAAAAATCGCTGTACTTCTAAAGGTGTGTTA [XGTACX_site843] | 9.74
CAAACAAACGGACACACACACACACCCAAAAATGAT [CACACA_site5363] | 10.6
AGTTTTATATAAGCTTGTACTTAATATTATTAAGTA [XGTACX_site5919] | 9.64
TTTGATAAATTATACACACACAATATATATAAAATA [CACACA_site2023] | 10
ACGGACTTAAAATACACACACACCAAAAAAAAAAAA [CACACA_site7304] | 10.2

Sequence | gcPBM binding intensity (ln)
TATATAAAACATGGGTGTACCAACATAAATCATATA [XGTACX_site2320] | 9.8
AATTGTGCATTATATTGTACACGTGTTGTATATATT [XGTACX_site975] | 9.82
TTGAATATGGTTACATGTACGTATCAATATTTTTTA [XGTACX_site4247] | 9.69
ATTTTGTTATGAAACACACACATATAAATATAAATA [CACACA_site7679] | 9.88
AATACACGCAGACACACACACAAAAAAAAAAAAAAA [CACACA_site6384] | 10.7
ATATATATATATAGTTGTACTTAATTTTATATGTTA [XGTACX_site5256] | 9.9
TATATTATTTATTAGACACACATTATTAAAATATTT [CACACA_site4737] | 9.7
TGTTGTATATCTCTATATAGCTATATTGTATATATA [TGCATGCA_negctrl_site323] | 9.79
GTGAAATTATTTCCGTGTACACATAAATATATATTT [XGTACX_site3989] | 9.74
CCTTGATATATATAAAGTACATATATATATATATAT [XGTACX_site4325] | 9.61
AAACTTATAAAAAGTAGTACCATAAAATAATACATA [XGTACX_site6523] | 9.7
TTTTACAAATATTACTGTACACATTTTCATATAATT [XGTACX_site17] | 9.83
ATTAACACATTTAAGTGTACATATATAAATATATAT [XGTACX_site7098] | 9.69
TATACATTATTATTATGTACTTAAATATATATTATA [XGTACX_site5173] | 9.58
ATATAACTCAAGGGCACACATATACCTTTCCTTTTT [CACACA_site4390] | 9.85
GGAACGTATATTTTCACACACTCTCAAAAGTACAAG [CACACA_site2301] | 9.77
GAAACAAAATTATTTTGTACATATGACTGTAGATAT [XGTACX_site972] | 9.7
TGTGCACGTTCTGTGACACACATTTAAATGTGCTTA [CACACA_site176] | 9.79
AATATGTGAATATAATCACACACAATACGGAAACAC [CACACA_site8875] | 10.7

Sequence | gcPBM binding intensity (ln)
AAAGAAGGATAATAATGTACAAGCAAAAAAATAAAA [XGTACX_site466] | 9.84
AAATAATTATTTATCACACATATGTATTTATATATA [CACACA_site4589] | 9.68
CTTTTTTTAATGATAACACACATGTTGTGCATAGAC [CACACA_site3270] | 9.72
TTAGTTTCCCAAATATGTACATAAATATAAATCATA [XGTACX_site2746] | 9.54
TTATTATTTTTTAACACACACATATATATTATATCT [CACACA_site4906] | 9.97
GTAAGAACACTTTTGTGGTTACTTAAAAGTGTATAT [GTGCAC_negctrl_site422] | 9.57
ATTTCAACAAATATAACACACAATGGATAAGAATAA [CACACA_site1974] | 9.82
TGCTTATATGTTGTTACACACTAAAATAGTTAGATA [CACACA_site1277] | 9.67
AATACAGTTAGAGAAAGTACACAACTAATATACATA [XGTACX_site8814] | 9.78
ACATATATTTCAAAGTGTACGCACAATTTTTTTTAC [XGTACX_site6166] | 9.74
AACATATATATAATATGTACATAATATATATAAATG [XGTACX_site1161] | 9.75
TATTTTTTAAAAAAATGTCATAAAATTTCTTTTTTC [XGTACX_negctrl_site271] | 9.28
ATATACAAAGGATTAACACACATATTATTATATATA [CACACA_site1880] | 9.83
AGAAAAAAATAATGTACACACACATATATGTTTATA [CACACA_site7946] | 9.95
GTAATTTTATATGGTTGTACATATATATATATATAT [XGTACX_site6659] | 9.84
ATATATATATATATATATATTTATATGTGAAAACCC [CACACA_negctrl_site845] | 9.93
TTATACCTGATTTAGGTGCTATAAATTTGTGTTTTT | 9.74
ATATATATATATATGTGTACTTATATATTTAAAAAA [XGTACX_site1761] | 9.59
CGCATAAAGACAAGAACACACATATATATTGTAGTA [CACACA_site5938] | 10
